Data taken from paper PMC10726135.
This is one part of the list. At the low end of the ranking, values are background and their order means little. Measured with an extract: partners may take part in the binding.

target: T1, HNF4alpha8 (COS-7 nuclear extract) (UniProt P41235-5); assay: protein-binding microarray; conditions: COS-7 nuclear extract on double-stranded Agilent 4x180k PBM; binding buffer, salt, pH and temperature not given; high values mean tight binding; double strand, one strand shown; sequences stand for … in …GCCTAGGGAGATTAGAGTATCGGTCGA
T1 sequence: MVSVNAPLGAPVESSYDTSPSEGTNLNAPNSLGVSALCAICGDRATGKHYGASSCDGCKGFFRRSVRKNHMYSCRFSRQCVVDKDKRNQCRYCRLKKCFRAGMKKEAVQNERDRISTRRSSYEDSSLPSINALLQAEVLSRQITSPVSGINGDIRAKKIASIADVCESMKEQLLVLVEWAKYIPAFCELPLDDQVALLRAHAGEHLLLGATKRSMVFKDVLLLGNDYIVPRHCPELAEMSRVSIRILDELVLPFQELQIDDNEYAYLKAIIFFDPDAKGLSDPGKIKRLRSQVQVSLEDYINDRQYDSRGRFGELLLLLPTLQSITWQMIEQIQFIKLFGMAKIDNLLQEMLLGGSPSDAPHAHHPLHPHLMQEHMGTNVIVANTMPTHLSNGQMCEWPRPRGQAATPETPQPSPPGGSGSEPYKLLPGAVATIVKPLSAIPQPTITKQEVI

Row | Sequence | binding signal (log2 normalized intensity)
1 | ACCTGAGAACAAACAATGGTTTGGGACAAA | -1.12
2 | TCACAGGTTCCAGCATGGACTTCACAGCCT | 1.02
3 | AAGGTTATTATATTGTGGGTTCTTGCCCTT | 3.46
4 | ACAAGCCAGGTGTGCAGAGAGCAAACGAAC | -1.27
5 | GGTCCGGCCCGACTCACGACCCCGCGGGAC | 1.2
6 | CCCCCCAAGTTGAAGCCATCCTCCCACCTC | 5.73
7 | GCATTTCTGGACTTGGATCAGCCTGATTGA | 2.43
8 | ATCTAGAGACACTATGTGCATTCCAAGGCT | -1.36
9 | GAGAGGGATAAAAGGGGAAAAGGTCAAATA | 3.21
10 | CTTGCTAAGTATAAAGTTAAGACCTACATT | -1.35
11 | CGACCTCATGAGTAGAGAGCAATCATGGGC | -1.29
12 | AAAGGTGAGTATGAGTAGGCTGTAGAGGAG | -1.09
13 | TCTCTCACCAGAAAAATGTACATGTGCAAA | 1.61
14 | GGATTCAGATCCAGTGGACTCTCTGTTTGA | 2.91
15 | AACTCCTTGAGAAGTACAACTTCAGCAATG | -1.33
16 | GAGAGCTGTCTGCTGAGGATGTGGCCCCGA | 2.38
17 | CAAGAAGGTCAGAGGTGAGAGCAGAATGAG | -1.2
18 | CGCAGCGAATGGTCGCGCCGGGCGCCGCTC | -1.31
19 | CTCCTCTCCAGCCCATCCTAAGCCCCAGGG | 1.28
20 | ATCTTCATTTATAGATAAGCACACTAAGGC | -1.3
21 | ACAGAACCTTGTTTTGTCTTCTGTTTGCAA | 1.08
22 | CACTTGTAGGCCTGTGTGCATGGAGTGCAC | 0.798
23 | ATCTGGTCTTACTGATGGGCAAAGTTTTCA | 1.18
24 | GCAGAGGGACAACTGAGTTACGTAATGTGT | 0.932
25 | CATCCTCATTGCCTCTGGGCTTTGATGGAC | 1.28

Row | Sequence | binding signal (log2 normalized intensity)
26 | AGCTTAGTTTGCCACGGTCAGCAATGTGGA | 1.02
27 | ACTAAATTCTTGTCAATGACCCTAATGGGG | 3.01
28 | CGGCCTCTGGGAAATGTAGTTCCGGAGAAC | -1.31
29 | AGCTATGCCTGAGGCTGAGGTTGCCCAGGG | -1.12
30 | GCAATCATGCACCTGCGGATAATCAAAGGT | -1.24
31 | ACCTGTGTCCCCCAGGTCCAGCCTTTGGGC | 2.91
32 | CTTTTTCTGAGCCTGGGTCACCCCTATAAT | 2.35
33 | TCTAGACCTGGACTTGAAGCCAGACTCTGC | 0.717
34 | CCAGAACCTTGTGCAGTATCCCAGGGACTT | -1.28
35 | AGGGCTCTCTCACCAGAAAAATGTACATGT | 1.14
36 | TTTTTTCCGAACGCCAGCAGCAGGGTCAGA | 1.86
37 | TTCATGGGTGAAAGGGACTCATCTCCAAAC | -0.892
38 | ATCAAATACAGAATCAATGCCTGATTCCAA | -1.29
39 | GCTGGAACTCCTCCGGTCAAGATCAAGTGG | 0.349
40 | CTCTTGCTATGCCTTAGCAAACAGACTGGT | -1.15
41 | CAGCCCCAATGGCTAAGGTCACCATGACCA | 2.78
42 | ATTAGAGCAACCAGAATGTTCAAAAGTGTG | 0.135
43 | CTTTTCCTTATCATCACATGTGCAAGGGCA | 2.26
44 | CTTGCACTGTAAGATCAAGATTAAGAAGAG | -1.15
45 | GTCCCTGGCCAATCCCAGGGTCAGAGGTCG | 6.08
46 | CTTCCAATGAAAGGTTAACCTGCTGGTTTA | 1.52
47 | GATATTCCAAAAGGGCAGCAGTAACCCCCC | 4.8
48 | ATCATTCACGTGCCTGAGATTCCTTCAAAG | -1.21
49 | TAGAGATAAGGTAACAGGCCAAAGGGCAAG | 4.25
50 | GTGATAATAAATGTGTTTCATCAGTCCAAT | 1.76

Row | Sequence | binding signal (log2 normalized intensity)
51 | TCAAAGGTTAATGAGCCCCCTAAAAAGAAA | 3.5
52 | ACGACGCTCCTATCATCCCTATCACTCAAG | -0.97
53 | CCCAGGGACTTTGGCCTTACTTGGCCTGTT | 3.01
54 | AGGTAGTCCCTGCTCCACGCAAACACAAAA | -1.22
55 | TGGCAGGGGCGCGGCCTAATGCCTGGGAAA | -1.26
56 | CAGGATCTCAGCCGCGCGGCTTCAGAGGCC | -1.32
57 | CTGGCAGCACCTGAAGAATTTGGACTTTGC | 8.33
58 | CACATTGTTTTGGAGTTAGCTGTCTTTCTG | 0.91
59 | GAAGACCTTCAACTGATTAGATAAGGTTCA | 1.77
60 | TTTCACCTGGGGCCTTGGGCCACCTGAGAC | -0.738
61 | TAGGTGCTCTTGGCTAAGACAGGGGCTATT | -1.2
62 | TCAGACTGCTTCTCTGCTGGGGCCCTCACG | -1.29
63 | TTTTCCTTTGTTGGTTTTGCCCGAGGTCTG | 1.89
64 | CAGAGTAAACAGGTAAACAGCTGTGCCATG | -1.38
65 | TAATCAGAGCAGGAATTCTGATCTTTGACC | 7.96
66 | TATGGCAGGGTCGGAATGTCTGGGCAAAGG | 1.98
67 | CACCCACTTGGATAATTTCTTATAAGCCGA | -1.36
68 | GCCAAACTTGGGTTTATGGCTTATGCATGT | 1.45
69 | GTTGGAAAAAAAAAAAAGTAGTAGGAGGAG | -1.31
70 | TCCACAGAGCACAGGATCCAGAGGTCACCC | 3.62
71 | GCAATGCCTCGCCCTGCTTCGGCTCGCGCA | -1.43
72 | TGGGCAAGATGGCTCTCCCGGGGCGGGGGT | -1.11
73 | GTAAAGTCTGGCATACAGGGTCCAAAGGTG | 6.76
74 | TTGCATGAGAATCTGACCTTTGGTTAACTT | 5.7
75 | CTCCAGGTACAAGGATAAATACTTCTCCTC | -1.32

Row | Sequence | binding signal (log2 normalized intensity)
76 | CCCGGTGCGCTGGCCTTGCTTTTCACAGTC | -0.861
77 | GTCCCTGCTTGATAAGACTGACAACCGGCT | -1.36
78 | TGGAACTGACATGCTGTCACTTCTGCTGCA | -1.35
79 | TCCTCTTATCTTCAGGTATCCTTAAACACT | -0.323
80 | TTCTCAATGTCTTTCCTGCAGAGGGACTGA | 1.35
81 | TTGTTTAGGTACAAAGTCCATTGGAAGCCA | 6.42
82 | GACAATAATGAATAAGCACGTTAGAGAAAA | -1.31
83 | CCAACATTCCAGAGAAGCACATCCAGGCAG | -1.35
84 | AAGTGGGGGGAAAGAATAACGTTACAGTGG | -1.42
85 | CTGAGGGGGGCCTCTTTTAAGAAGCCAGTG | -1.34
86 | AACCTCACAGAAATCCAAAGGTCAACAGCC | 4.86
87 | ACAAGACCACAAGGTGGCGATAACTCCTTT | -1.24
88 | ACCTCATTGTGATGTGTGCGTTCATCTCAC | 1.54
89 | TAATCAGCTTAAGCATACAGATTACATCTC | -1.03
90 | AGCTCTAGAACGCTGACTCCGGGGAGCAGG | -1.33
91 | GTGGGAGGCCAAGAGATAAAAGAGAAGATA | -1.3
92 | CCAGCTGGTTTGCCTCTCTTAGGTGACAGC | -0.948
93 | AGGTGAATGTACAAAGGTCAACGGCACAAG | 5.02
94 | GTGTATGTGTGTGTACACATTGATATGTTT | 1.92
95 | TGTGTCGATGTTAACGCTAAAGAGGTATCA | 1.3
96 | AGAGCGATCAAAGGTCACAGAGACCACAGG | 5.89
97 | GCTCCTATCATCCCTATCACTCAAGAAATG | 0.00841
98 | CTTTATTATCCCAGTAGAGAAACAAATCTG | 0.0079
99 | TCCTACTTCTGTTTAAACTGATAACCTTGC | 1.15
100 | CCACAATTACTGAAGTTCCAGAGCCTTCAA | -1.32

Row | Sequence | binding signal (log2 normalized intensity)
101 | AGATAGCACCAGCCCATTAATCAAGGCTGC | -1.27
102 | TACTTAATGATCTTGGCTGCTTTAGACATG | 0.416
103 | TTACAAAACAGGTTCTTCCACGACTCCCCC | 4
104 | CCCCTCCTGTCAGTTTATTTACTGTCCTCA | 1.88
105 | TAACCTTTGACCATCCACGGGTCCATGATT | 5.27
106 | GGTTATGCAGAGCTTAGTTTGCCACGGTCA | 0.515
107 | TAGAATTTGAACTATGGTCATCTGAGGGAA | 2.24
108 | AGAGAGAGGGAGAGTGGCCTTTGGAATCAA | 4.1
109 | GAGGAGTGGCCATGATGCCATCTGGTGAAG | -1.24
110 | GATGGAACAGTGTAACACATGGCATAGTTG | 0.704
111 | AAAGATTGCATGAGATTTTGCTCAACAAAT | -1.24
112 | GAGAAATCACGGACTATCCCCGTCCGCGGA | -1.41
113 | TTCCTGGGCTCAAACAATCCTCCCACCTCA | 1.09
114 | TTCTCAAACCTTCCAAAGTTCAACCTCATT | 2.84
115 | GAGACTTTGGACTTTGGACTTGGGACTTTC | 9.81
116 | CAGTGAAAACAGCCCTAACCAGGGGTGGGG | -1.37
117 | GACTGGGTGTGGGGGTGGAGAAGGAAGGGG | -1.28
118 | TGGAGCATGACCCTTTGCAGGTGGGAGAGG | 0.928
119 | CAGCCAGCAGGGGGCGCAGAAGGGATGGGA | -1.42
120 | CAACTGTGTGTGGCCTGCACAGTTGCACAA | -1.3
121 | ATGTGAAGCTTGCTGATTACATAGGAGGCT | -1.28
122 | TCCACTTCTGAGGAGAAGAATGAAAGCCAA | -1.27
123 | AGTGTGTTGACATTTGAACCCAACCGTCCA | 3.74
124 | TGTGCTGCCCTCTTGTGGCCATTTGGGAAA | 1.44
125 | TGCTAAGATGGTCTCAGGTGGAGATAAGGA | -0.538

Row | Sequence | binding signal (log2 normalized intensity)
126 | GGGAGAAACCTGCCAGGTGGACCAAAACAC | -0.226
127 | CAGGAAGTTCAGGCCTCGGCTTCATTAGCA | -1.36
128 | CTCTGATTCTCCAGTCCGAAGGTCCACCCG | 3.68
129 | CTTGTTATATTGGATAGTGCCTTTTCTAAT | 1.82
130 | CTACAGGAGAACAAAGTTCACCTTTCCCTT | 3.72
131 | TGCGCTGGTTTTATGGTGTCTTATCTTCCT | 2.11
132 | CTCACAGAGTGGAGTCTTCCGTTTGATAGA | -1.11
133 | CCGGTTTGGGGACTTCTCCCCAGAGCCTCT | -1.33
134 | AAAAGGCCCCAGGGATTGCACAGGATGCCA | -1.32
135 | CCTAAACCTGCAAACCTTTGACCTTTCCAT | 6.22
136 | GAGGTTCCTGGAACTCTGACCTTTGCCCCC | 10.3
137 | CAAGAGGACAAGGTTCAAAAGCTACCTGTT | 2.73
138 | TGCCTGGCTCAGCATTCTGAGGGCCTCCAA | -1.19
139 | AGCTCTTCTGTGCCTCCCAAATGCAAACAG | 1.45
140 | CGCTGCTTCCACCAGGGCTAGACCCGTCAG | -1.35
141 | GAGCCCAGACAAGCATTCTGCTGAAGGAGC | -1.32
142 | AATCGACCTTTAGCACCGTAAGAGAGTATT | 4.63
143 | TACCAGTAGGACCACATTCAATCATGAACA | -1.37
144 | TCCTTTTCTTTCACATACAAAATTTACTTT | 1.75
145 | GCTGATTGCTCAACCCAAAGCATGTCCAGA | -1.31
